Screen size: about 280,000 compounds; about 1,100 (0.39%) were called active. The shares of active, inactive and inconclusive entries below differ from those in the screen. The call rests on the fitted dose curve; in most records, active means well fitted inhibition curve with a large enough effect; inconclusive means small, poorly fitted or top-dose-only effect, or effect the other way; inactive means flat fitted curve, though single readings scatter. Potencies of inconclusive entries are left out as doubtful fits.
What follows are compounds tested against Microtubule-associated protein tau (Homo sapiens) (UniProt P10636) (assay: qHTS for Inhibitors of Tau Fibril Formation, Fluorescence Polarization). Settings: K18 P301L tau heparin fibrillization, Alexa594 FP, 6 h; series mostly up to 57.7 µM; activity, negative = inhibition: at the top concentration.
Sequence of UniProt P10636 (P10636 whole entry, looked up, the tested form may be a part): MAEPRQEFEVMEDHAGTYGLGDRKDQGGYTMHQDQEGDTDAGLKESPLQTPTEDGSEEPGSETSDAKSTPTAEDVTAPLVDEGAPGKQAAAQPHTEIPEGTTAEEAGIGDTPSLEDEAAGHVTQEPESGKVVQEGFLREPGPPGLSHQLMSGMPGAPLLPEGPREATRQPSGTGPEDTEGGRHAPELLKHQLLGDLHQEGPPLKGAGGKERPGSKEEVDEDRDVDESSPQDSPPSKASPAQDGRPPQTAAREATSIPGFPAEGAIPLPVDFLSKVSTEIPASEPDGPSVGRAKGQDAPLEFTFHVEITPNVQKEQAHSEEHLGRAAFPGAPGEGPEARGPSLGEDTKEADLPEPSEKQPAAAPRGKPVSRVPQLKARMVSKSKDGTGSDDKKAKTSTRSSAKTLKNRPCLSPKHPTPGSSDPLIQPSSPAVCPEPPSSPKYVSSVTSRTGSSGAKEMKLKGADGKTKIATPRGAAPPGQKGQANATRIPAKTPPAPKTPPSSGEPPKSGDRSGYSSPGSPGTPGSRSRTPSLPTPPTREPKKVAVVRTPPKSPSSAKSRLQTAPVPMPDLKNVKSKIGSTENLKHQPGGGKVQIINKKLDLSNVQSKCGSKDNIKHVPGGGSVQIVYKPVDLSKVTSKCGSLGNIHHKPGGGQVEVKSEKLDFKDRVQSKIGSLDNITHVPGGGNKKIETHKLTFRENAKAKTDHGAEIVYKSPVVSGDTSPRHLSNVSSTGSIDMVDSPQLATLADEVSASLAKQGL
Method in brief: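 Human K18 P301L fragment (15 uM unlabeled plus 0.24 uM Alexa 594-labeled) in 100 mM sodium acetate pH 7 with compound, aggregation induced by 20 uM heparin for 6 hr at 37 C. ThT (30 uM) added for 1 hr, then Alexa 594 FP read.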
Further: nearly all actives have a fitted effect of over 55% in size.
On the % scale 0 is the no-effect control and ±100 the full control effect; potency means the concentration at half of the fitted maximal effect; tags describe the fitted curve by direction and shape.

| SMILES | Potency | activity, negative = inhibition |
| --- | --- | --- |
| Cc1ccccc1CN1CCCNC1=O | inconclusive [inhibitor, single point] | – |
| COc1ccc(O)c(/C=N/NC(=S)Nc2cccc(S(=O)(=O)N(C)C)c2)c1 | inconclusive [activator, full curve, poor fit] | – |
| O=C1/C(=C/c2cccnc2)SC(=S)N1Nc1ccccc1 | inconclusive [inhibitor, partial curve] | – |
| CC(C)NC(=O)NC(=O)COC(=O)c1ccc(S(=O)(=O)Nc2ccccc2)cc1 | inconclusive [inhibitor, partial curve] | – |
| O=C(COc1ccccc1)Nc1nc(-c2cccs2)cs1 | inconclusive [inhibitor, single point] | – |
| CCn1c(CSc2nnc(-c3cccnc3)n2-c2ccccc2C)nc2cc(C(=O)O)ccc21 | inconclusive [inhibitor, single point] | – |
| CCS(=O)(=O)c1ccc2oc(Nc3ccc(C(C)C)cc3)nc2c1 | inconclusive [inhibitor, single point] | – |
| Cc1c(NC(=O)c2c(N)sc3c2CCCC3)c(=O)n(-c2ccccc2)n1C | inconclusive [inhibitor, single point] | – |
| Cc1ccc(-c2c(C(=O)Nc3ccccc3F)oc(=O)c3ccccc23)cc1 | inconclusive [inhibitor, single point] | – |
| CNC(=O)c1ccccc1NC(=O)c1cccc(S(=O)(=O)N2CCCCC2)c1 | inconclusive [inhibitor, single point] | – |
| C/C(=N\NC(=O)c1ccc(N/N=C(\C)c2ccc(O)cc2)cc1)c1ccc(O)cc1 | inconclusive [activator, partial curve, poor fit] | – |
| O=C(NCc1ccco1)c1ccc2nc3sc4c(c3c(=O)n2c1)CCCC4 | active: 22.4 µM | – |
| O=C(Nc1c2c(nc3ccccc13)CCCC2)c1ccccc1Cl | – | inactive: 6.48% |
| COc1ccc2[nH]c3c(=O)n(/N=C/[C@H]4C(C)C=C(C)CC4C)c(=O)[nH]c3c2c1 (stereo partly specified) | inconclusive [activator, single point] | – |
| COc1ccc(C(=O)Nc2ccccc2C(=O)N/N=C/c2cccc3ccccc23)cc1 | inconclusive [inhibitor, single point] | – |
| FC(F)(F)Oc1ccc(NC(=S)Nc2ccc(OC(F)(F)F)cc2)cc1 | inconclusive [inhibitor, full curve] | – |
| COc1ccc(NC(=O)Cn2c(=O)n(-c3ccc(OC)cc3)c(=O)c3sc4ccccc4c32)cc1 | inconclusive [inhibitor, partial curve] | – |
| Cc1ccc(C(=O)NCCn2cc(SCC(=O)Nc3cc(C)on3)c3ccccc32)cc1 | – | inactive: 3.76% |
| CN(C)c1ccc(C(CNC(=O)c2ccc(C#N)cc2)c2c[nH]c3ccccc23)cc1 (stereo unspecified) | inconclusive [activator, partial curve] | – |
| O=C(Cn1cc(S(=O)(=O)Cc2ccccc2F)c2ccccc21)Nc1ccc(F)c(Cl)c1 | inconclusive [inhibitor, partial curve] | – |
| CCOC(=O)COc1cc(-n2c(=S)[nH]c3cc(OC)c(OC)cc3c2=O)c(Cl)cc1Cl | inconclusive [inhibitor, partial curve] | – |

| SMILES | Potency | activity, negative = inhibition |
| --- | --- | --- |
| O=C(NCCc1ccc(Cl)cc1)c1cccs1 | inconclusive [inhibitor, partial curve] | – |
| C/C(=N/Nc1ncc(C(F)(F)F)cc1Cl)c1ccncc1 | – | inactive: -4.24% |
| O=C(NCCO)c1ccc(-c2nnc(Nc3ccc(OC(F)(F)Cl)cc3)c3ccccc23)cc1 | inconclusive [inhibitor, single point] | – |
| Cn1nc(C(F)(F)F)c(-c2ccc(F)cc2)c1NC(=O)Nc1ccc(F)cc1 | inconclusive [inhibitor, single point] | – |
| CC(C)c1ccc(/C=C/C(=O)Nc2nc3ccc([N+](=O)[O-])cc3s2)cc1 | – | inactive: -1.28% |
| CCOC(=O)c1c(NC(=O)CSc2nnc(C)s2)sc2c1CCCCC2 | inconclusive [activator, single point] | – |
| CCOC(=O)N1CCC(c2cc(=O)n(-c3ccccc3)[nH]2)CC1 | inconclusive [inhibitor, full curve, poor fit] | – |
| CCOCCCNC(=O)c1ccc2c(=O)n(Cc3ccc4c(c3)OCO4)c(=S)[nH]c2c1 | inconclusive [inhibitor, single point] | – |
| Cc1ccc(CNC(=O)CCS(=O)(=O)c2ccc(Br)cc2)cc1 | – | inactive: 1.76% |
| Cc1nn(C)cc1C(=O)Nc1cc(Oc2ccc(Cl)cc2)cc([N+](=O)[O-])c1 | inconclusive [inhibitor, partial curve] | – |
| CC1(OC(=O)C2CCCC2)C(=O)C=C2C=C(c3ccsc3)N(CCc3c[nH]c4ccccc34)C=C2C1=O (stereo unspecified) | inconclusive [inhibitor, partial curve] | – |
| Cc1cc(SCC(=O)Nc2ccc(F)cc2F)nc(=O)[nH]1 | – | inactive: 0.792% |
| Cc1nnc(SC2CC(=O)N(c3ccccc3)C2=O)s1 (stereo unspecified) | – | inactive: 0.667% |
| CCc1cccc(C)c1NC(=O)COC(=O)C(NS(=O)(=O)c1ccc(Cl)cc1)C(C)O (stereo unspecified) | inconclusive [activator, single point] | – |
| COc1ccccc1C(=O)NC(=O)Nc1ccc(-c2cc(C(F)(F)F)nn2-c2ccccc2)cc1 | inconclusive [inhibitor, partial curve] | – |
| C=CCN1CCN(C(c2ccc(Cl)cc2)c2nnnn2CCc2ccc(OC)c(OC)c2)CC1 (stereo unspecified) | – | inactive: 9.1% |
| Cc1ccc(S(=O)(=O)N2CCCc3cc(NC(=O)c4ccc(Cl)cc4)ccc32)cc1 | inconclusive [inhibitor, partial curve] | – |
| Cn1c(=O)cc(SCC(=O)NCCC2=CCCCC2)c2ccccc21 | – | inactive: 1.71% |
| CCOc1ccc(CCNC(=O)c2c3c(nc4ccccc24)C(=O)N(C2CCCCC2)C3)cc1 | inconclusive [activator, single point] | – |
| Cn1ncc(Cl)c1C(=O)NC(=S)Nc1sc2c(c1C#N)CCCCC2 | – | inactive: -8.11% |

— PubChem BioAssay AID1468 (National Center for Advancing Translational Sciences (NCATS), 2008)
